Data from the BET-seq Pho4 binding data (Le et al. 2018).
Some of the results follow. These are noisy estimates, calculated here from bound and input reads.

Each sequence was assayed against T1, Pho4 (S. cerevisiae) (UniProt P07270) (assay: relative binding free energy (BET-seq); higher = weaker binding). Conditions: reference: library average.
T1 sequence: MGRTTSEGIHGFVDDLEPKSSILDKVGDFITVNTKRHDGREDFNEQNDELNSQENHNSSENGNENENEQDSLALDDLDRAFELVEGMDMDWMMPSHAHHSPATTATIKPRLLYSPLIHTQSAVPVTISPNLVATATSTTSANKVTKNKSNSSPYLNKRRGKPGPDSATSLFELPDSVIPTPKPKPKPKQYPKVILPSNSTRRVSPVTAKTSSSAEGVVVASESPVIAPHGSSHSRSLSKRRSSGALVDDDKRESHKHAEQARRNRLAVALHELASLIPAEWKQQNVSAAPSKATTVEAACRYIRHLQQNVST

Sequence	relative binding free energy
ATGGCCACGTGTGGTT	-0.04 kcal/mol
GGTGGCACGTGTTCGA	-0.18 kcal/mol
AATGGCACGTGGTTTT	-0.08 kcal/mol
GTATGCACGTGATGCT	0.16 kcal/mol
TGTTGCACGTGTGGCA	0.07 kcal/mol
ATGTTCACGTGCTAAT	0.28 kcal/mol
TTTCTCACGTGTCGGG	0.4 kcal/mol
GCTGTCACGTGATGTG	0.22 kcal/mol
GAGTGCACGTGTTGGA	0 kcal/mol
TTAATCACGTGTATCG	0.06 kcal/mol
GCGGTCACGTGGGGCT	0.03 kcal/mol
TGGTGCACGTGAGTCT	0.1 kcal/mol
CATTGCACGTGATTGT	0.13 kcal/mol
GGGCGCACGTGAATGT	0.08 kcal/mol
TTCCGCACGTGGGTTT	-0.22 kcal/mol
TATTTCACGTGCCGGG	0.36 kcal/mol
GAATTCACGTGATTGG	0.29 kcal/mol
ATTTACACGTGACTGG	0.3 kcal/mol
GGGTGCACGTGAGTAC	0.15 kcal/mol
GTTTACACGTGGTCAA	0.06 kcal/mol
GCTTGCACGTGGCTCG	0.12 kcal/mol
TTTTGCACGTGTGTCC	0.14 kcal/mol
TTTGTCACGTGGGACG	0.11 kcal/mol
TGTATCACGTGATTTA	0.26 kcal/mol
TATTGCACGTGGCTAT	-0.22 kcal/mol

Sequence	relative binding free energy
GTGCGCACGTGTGGAG	-0.09 kcal/mol
ATGCGCACGTGCGTGT	-0.21 kcal/mol
CGAGGCACGTGTCGTG	-0.07 kcal/mol
AAGGGCACGTGGACGG	-0.19 kcal/mol
GTGTGCACGTGGATTG	-0.12 kcal/mol
AGATGCACGTGATTAG	0.07 kcal/mol
GATGACACGTGTTAAG	0.15 kcal/mol
TATTTCACGTGAGCTT	0.41 kcal/mol
TTAGGCACGTGGCCTT	-0.21 kcal/mol
AGGAGCACGTGCTGTA	-0.21 kcal/mol
GGGATCACGTGGCTGT	0.14 kcal/mol
TGGGTCACGTGGCGGT	-0.03 kcal/mol
CGTGACACGTGTGAAG	0.11 kcal/mol
TTTGACACGTGGGGTT	-0.06 kcal/mol
TGGGGCACGTGTTAAG	-0.06 kcal/mol
CTGTGCACGTGGGTCA	-0.2 kcal/mol
TAGATCACGTGTTTGA	0.11 kcal/mol
TCTGACACGTGGGGGA	-0.02 kcal/mol
TCTGTCACGTGTCGGG	0.04 kcal/mol
CTATGCACGTGTGTAG	-0.17 kcal/mol
CGAAGCACGTGGTGTG	-0.27 kcal/mol
GGGGACACGTGTTATG	0.03 kcal/mol
TTTGCCACGTGGGGGA	-0.15 kcal/mol
TTGCTCACGTGTGGCA	0.18 kcal/mol
GTGTTCACGTGTTCAG	0.43 kcal/mol

Sequence	relative binding free energy
GGTACCACGTGGGGAT	-0.06 kcal/mol
GTTGACACGTGACGTT	0.04 kcal/mol
GGTTGCACGTGAGAAG	0.12 kcal/mol
GATGTCACGTGTGAAG	0.17 kcal/mol
GCGTACACGTGTGGGC	0.14 kcal/mol
TGTTCCACGTGGTATT	-0.2 kcal/mol
TATCGCACGTGGGGAT	-0.12 kcal/mol
TATCGCACGTGTTGTA	0.03 kcal/mol
TGGGGCACGTGGTTAC	-0.13 kcal/mol
GCCGTCACGTGTTTGT	0.34 kcal/mol
GGTTACACGTGGCAAG	0.17 kcal/mol
GTGTTCACGTGGGAAC	0.34 kcal/mol
ATAGGCACGTGGAGGA	-0.13 kcal/mol
ATGGTCACGTGCCGGT	-0.04 kcal/mol
TGGTACACGTGCTGTA	-0.01 kcal/mol
TGTTACACGTGGGTTT	0.03 kcal/mol
CTGTTCACGTGGGTAG	0.15 kcal/mol
CATGGCACGTGTTGGT	0.03 kcal/mol
GTGGGCACGTGAAGAC	0.26 kcal/mol
TTAATCACGTGGGTGA	-0.01 kcal/mol
TTGGACACGTGTCAGG	0.1 kcal/mol
TTTTGCACGTGAATTT	0.33 kcal/mol
TATGTCACGTGAGATT	0.43 kcal/mol
TTTTTCACGTGTCCTT	0.16 kcal/mol
GGTTCCACGTGAGAGG	0.43 kcal/mol

Sequence	relative binding free energy
TGGCACACGTGATGGT	0.13 kcal/mol
CTTGTCACGTGATGGG	0.07 kcal/mol
TTCGACACGTGGGGTC	-0.09 kcal/mol
GGATGCACGTGTAAAA	0.2 kcal/mol
CATTTCACGTGGGGCG	0.16 kcal/mol
TGGGGCACGTGAGTGA	0.08 kcal/mol
GGGGTCACGTGAACTT	0.29 kcal/mol
TTGATCACGTGGGCAA	-0.07 kcal/mol
TGTGCCACGTGTGAGC	-0.01 kcal/mol
GATGCCACGTGTTGTA	0.01 kcal/mol
GTTTTCACGTGCCTGT	0.22 kcal/mol
AGGCTCACGTGAAGGG	0.24 kcal/mol
TGTGTCACGTGCAAGG	-0.12 kcal/mol
GGTCACACGTGGTCGT	0.19 kcal/mol
GTTTACACGTGTACGT	0.21 kcal/mol
AAGTACACGTGTGTGC	0.07 kcal/mol
TTGTTCACGTGCTGCT	0.18 kcal/mol
TGTGACACGTGCGTGT	-0.08 kcal/mol
GAAATCACGTGAGGGG	0.32 kcal/mol
CGTATCACGTGGTTAT	0.1 kcal/mol
AATTTCACGTGGCTAT	0.27 kcal/mol
TACATCACGTGTAGTT	0.18 kcal/mol
AGGCGCACGTGGGTCA	-0.27 kcal/mol
GGTAGCACGTGTTAGG	0.07 kcal/mol
CTAGGCACGTGCTTGG	-0.29 kcal/mol

Sequence	relative binding free energy
AGGCGCACGTGTGGCG	-0.07 kcal/mol
ATATTCACGTGGTGTC	0.06 kcal/mol
AGCTGCACGTGTGGAG	0 kcal/mol
TTGTACACGTGAGCGT	0.15 kcal/mol
TAAATCACGTGAGAGG	0.37 kcal/mol
GGTGGCACGTGAAGGT	0.27 kcal/mol
TATGACACGTGTTTTG	0.07 kcal/mol
GTCAGCACGTGTTGTA	0.09 kcal/mol
CGGGTCACGTGCGTGG	0.03 kcal/mol
GGGGTCACGTGTCTTC	0.17 kcal/mol
TAGAGCACGTGGTGCA	-0.26 kcal/mol
TTTAACACGTGTTACT	-0.11 kcal/mol
GTGAACACGTGTGCTA	0.19 kcal/mol
TGGTACACGTGTGGGC	0.2 kcal/mol
TGTGTCACGTGGGATA	0.1 kcal/mol
ATGGGCACGTGATAAA	0 kcal/mol
GCGCTCACGTGTTGGG	0.18 kcal/mol
GTTTTCACGTGTTTGA	0.35 kcal/mol
ATGGGCACGTGCTCGG	-0.14 kcal/mol
TGTTACACGTGTGGGG	0.19 kcal/mol
GTTTTCACGTGGTCGT	0.27 kcal/mol
GGATGCACGTGGGATA	-0.06 kcal/mol
ATTGGCACGTGTCAAT	-0.11 kcal/mol
GATGCCACGTGGTTGT	-0.03 kcal/mol
GGATACACGTGGTTGT	0.01 kcal/mol

Sequence	relative binding free energy
TAGAGCACGTGCTGTG	0 kcal/mol
TTTGTCACGTGTGTTC	0.21 kcal/mol
TGTTACACGTGTGTAT	0.13 kcal/mol
GAGGTCACGTGCTGGA	0.14 kcal/mol
TAATGCACGTGTATGC	-0.01 kcal/mol
TGGGTCACGTGGGATC	0.08 kcal/mol
CTTGGCACGTGGGGGT	-0.13 kcal/mol
AGGGCCACGTGAAGTT	0.27 kcal/mol
GCTTACACGTGTGAGG	0.12 kcal/mol
TCGTGCACGTGGCTTA	-0.01 kcal/mol
TATTTCACGTGCGATG	0.2 kcal/mol
GTTCGCACGTGTTAGA	0.07 kcal/mol
CAGGGCACGTGGGCCG	-0.18 kcal/mol
CAGGTCACGTGAGTTG	0.38 kcal/mol
TAGCTCACGTGTATAT	0.26 kcal/mol
AAAGTCACGTGAAGTG	0.3 kcal/mol
ATTAGCACGTGTTGTC	-0.1 kcal/mol
TCGAACACGTGTGGTT	-0.04 kcal/mol
TGTAGCACGTGGGACG	-0.19 kcal/mol
AGGTGCACGTGTAGTT	0.13 kcal/mol
TATTACACGTGTTGGT	0.17 kcal/mol
